The supplement of paper PMC10126150
Sequences with one replicate were seen in a single cluster, so their values are uncertain.

Test system: ATP
Test: switch fluorescence ratio, 500 uM ATP over buffer (Cy3 cluster intensity, sum of 5 cycles each) (fold (ratio)); higher = stronger signal-on switching upon ATP binding; sequences stand for … in TCGTCGGCAGCGTCAGATGTGTATAAGAGACAGTTTTTTTTTTTTTTTTTTTTTTTTT…TC
Conditions: aptamer strand: ATP DNA aptamer (quencher-CACCTGGGGGAGTATTGCGGAGGAAGG + anchor), 100 nM annealed; ATP concentration: 500 uM; one replicate
Procedure, shortened: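 Cy3-labelled switching-strand clusters on a modified Illumina MiSeq flow-cell were annealed to 100 nM quencher-labelled ATP aptamer and imaged first in selection buffer, then after 15 min with 500 uM ATP at 22 °C. NaOH stripping and re-annealing separated each of five buffer/ATP cycles, and clusters outside 100-1000 RFU were excluded. The fluorescence ratio sums target-cycle Cy3 intensity over buffer-cycle Cy3 intensity per cluster and averages it per switch-domain sequence.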
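Note: ATP exposure 15 min at 22 °C before imaging.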

Sequence | switch fluorescence ratio
TATTAGAGCT | 1.01
AGTGGACCAC | 1.02
AGCGTGCAGA | 1.02
ATGTTCGAAT | 0.972
GCCCATTACT | 1.18
CAGTGCGAGG | 0.994
TGCTGGTTTG | 1.02
TCTCACGACT | 1.03
TGCTGGGCG | 0.944
GCTACTGGGA | 1.08
ATGCTAGATG | 1.04
GTGTAAATGA | 0.992
TAGCGGGCTG | 0.991
AGTTATATTT | 0.983
GATACATCCT | 1.06
AGGTGGGAAT | 1.12
TATAAGTATT | 0.976
ACAAGGTTCG | 1.01
TACTAGACGG | 1.32
AGGGCGAACC | 1.06
GAAGAGGAGT | 1
CCACCCAGCT | 1.05
TCGCTCTAG | 1.03
CATTACGATT | 1.05
CAATGTCATC | 0.947

Sequence | switch fluorescence ratio
TGCAAATTT | 0.982
AGTAGGTCCA | 1.02
GCTCATTGAT | 1.01
CCTTAGGTTG | 1.07
GGCTATTACG | 1.03
GCTCTCTTTA | 0.961
CTAGGCTTGT | 0.995
AGAAGTAGAT | 0.999
ATACACCTTT | 1.38
GGGGATAGGT | 0.996
TCGTGGCTCA | 1.01
AGGCAGGCCG | 1.03
TACACGCACG | 1.74
GTCATCGGGA | 0.995
TCTCGTTG | 0.991
TAGTTGGTTC | 0.932
ATCGCAATCA | 2.5
TAAGCACTCA | 1.29
TTGACCGGTG | 1.01
TAGTCTCAAT | 0.939
GCTTGCATCG | 0.982
CCTCATGGGT | 1.06
AGAAATGGGG | 0.998
TTTAAGGCGC | 1.02
ATTAAAGCT | 1.17

Sequence | switch fluorescence ratio
GAGTCAAGCA | 1.11
AATTCTGCTG | 0.931
GATATTACT | 1.03
CCCTTGGAGC | 1.48
TCGCGCACGT | 1.09
CAAAGCTTCG | 1.31
GAGTAGGAAA | 1.01
CCCTCGGACT | 1.01
TCGAAAAAAG | 1.04
TCTGGTGAGG | 0.986
TAGGGAGATA | 0.943
GATCGGAATT | 1.05
CAATATAGCT | 1.02
AAGCACCTAC | 1.63
ATATCGGCTA | 1
ACGAGTACGA | 1.05
GGAATCAGAG | 0.999
GGCGTACAGC | 0.979
CTGCATAGTT | 1.01
GCTAGATTTC | 1
AAAAGCAAAA | 1.57
TATTCGACCT | 1.18
AACTGAATGG | 1
TGAAGGAATT | 1.01
CGAAATTTGC | 0.993

Sequence | switch fluorescence ratio
CAAGGCGGG | 1.02
GAAAAAACTA | 1.01
AGGTACAGGA | 1.03
GGTCGACCTT | 0.993
CAGAACGAGG | 1.03
GTCGGTCAGG | 0.998
ATCCGAATGG | 1.09
ATCAACATGT | 0.975
TAGGGTCCTT | 1.02
GCGGTCCTAT | 0.961
GTCTTGCCTT | 1
GAGGGGCGAA | 1.01
CAAGGTGGCG | 0.958
GCACTATTAG | 0.99
GGGTTTCG | 1
GGAGCAAAAA | 1.17
GACACGAGAT | 2.01
TTTGGCACGG | 0.981
CATTAGATTT | 0.971
GTGTAGGGG | 0.982
AGTTCAAGTA | 0.993
GCTTATGACC | 1.06
AGGAGCTGAG | 1.06
AGCGCCTGGT | 0.974
TTTATGATCC | 1

Sequence | switch fluorescence ratio
GGCAGCGGGT | 0.981
GCCAATAACA | 0.962
GCGGAGGTGT | 1.11
ATGCCTTG | 1.04
GCACGGGTAC | 1.06
TTTTCGTTAC | 1.31
GTACCTGGGG | 0.986
GTGATGAGGG | 1.02
CGGCAGGGTC | 1.04
CCCCTGTAGC | 1.33
GAACAGGCTA | 1.04
CCAGGCTTTT | 1.05
AATACGTCCT | 1.03
GAGCTGTAAA | 0.98
ACGGAAGGCT | 1.02
CTCTAAGTCA | 0.993
ACTAGATGTA | 0.985
ATCTAGTGAC | 0.998
TAATAGGAAT | 0.958
CGTACTTTCG | 1.03
TGGCGAACGC | 0.996
GTGGGTGATT | 1.03
CACGGGATCC | 0.99
GCGGAGTGAG | 1.01
TGTCGAAGGG | 1.04

Sequence | switch fluorescence ratio
CAACGCGCTT | 1.03
CGGTCATAAT | 1.01
TCGTATATGA | 0.983
CACAGCGAAT | 1.14
GACATAAGGA | 1.01
ATAGAAACCT | 3.52
CAACTTGTTT | 0.974
CTATGCTATG | 1.05
AATCGAGCTT | 1.03
AGTACTATGA | 1.01
TCGCGCGTTT | 1.01
TCTTAGCGGA | 0.992
AGTGTGCTAT | 0.944
GGCATCGCTT | 1.06
GAAGTTGCTC | 1.01
ACTTATTTCG | 1.03
ATTGGGAACG | 1.01
GAAAAAGAAC | 0.981
TCCCATTAAG | 0.994
AGGAGGACTA | 1.02
TAATTAATAA | 1.05
GAGTGTTGTT | 0.976
ATACAGTGAG | 0.981
TAAGTGTCTT | 0.973
ATTGGAATTC | 0.944

Sequence | switch fluorescence ratio
TACATATTAC | 1.11
CGATTATGGG | 0.95
AACAAAATAC | 1.61
GTTCGTAGCG | 0.942
TGGGGTTTCT | 1.01
TGTAATCCCT | 1.05
TAGGGTGGC | 0.97
GGGGGTGTG | 1.01
GAGGAGCCGT | 1.14
GGTTGAAATA | 0.977
CTCTACAGCT | 1.05
CGAGGTCAAT | 2.74
CAGAGCCACA | 1.04
GAACCGCCGA | 1.13
GAATTAACCG | 1.09
AATTCCGTGG | 0.955
AAGAACTCCT | 1.02
GTGTTGTCAT | 0.961
CGGCTGGTGT | 1.06
CAGTGACTCT | 0.98
TAGACCCAC | 1.32
GTTGGGCTGT | 0.987
CTAATGTAAC | 1.01
AGAGATTAAA | 1.01
GTGCAATTGG | 1.09

Sequence | switch fluorescence ratio
ACGGCGAGC | 1.01
AATTAGCGGT | 1.04
CCTTTTTCAG | 1.27
AGACACCTCA | 1.03
CTTTAGAATT | 1
TTCCATGGGT | 1.02
ATAGGGTGAG | 1.03
ACAGAAATTA | 0.99
ATGCGCACGT | 1.05
TTTTCGTCGG | 1.05
CGCTAAGTTG | 1.03
ATAAACTGTG | 1.06
AGAGGAGGAA | 0.983
CACCGTAAAT | 1.47
GGGCTCGGGA | 0.968
GCGTAAGTCA | 0.989
CCATATTACG | 1.03
GTAGTTTATC | 0.991
CTGTTTGAGG | 1.02
ACTTGATCAT | 1.02
TCACAAGAGA | 1.01
TTGGTAGCGC | 0.986
CTGCCGAAGC | 3.01
CGTTCTTTGA | 1.01
GCTTAATACA | 1.01
